The target in data set [1] is T1, TcG6PDH K83A (Trypanosoma cruzi, UniProt Q1WBU6, K83A). In words: biochemical.
Data set [2] deals with T2, TcG6PDH K84A (Trypanosoma cruzi, UniProt Q1WBU6, K84A). The experiment in a line: biochemical.
For data set [3], the target named is T3, TcG6PDH L80G (Trypanosoma cruzi, UniProt Q1WBU6, L80G). In words: biochemical.
In data set [4] the target is T4, TcG6PDH R408A (Trypanosoma cruzi, UniProt Q1WBU6, R408A). In words: biochemical.
Data set [5] addresses T1, TcG6PDH K83A.
For data set [6], the target named is T4, TcG6PDH R408A.
Data set [7] deals with T2, TcG6PDH K84A.
For data set [8], the target named is T3, TcG6PDH L80G.
For data set [9], the system named is O=C[C@H](O)[C@@H](O)[C@H](O)[C@H](O)COP(=O)(O)O. In words: purified protein, by the assay type. As to conditions: apparent, fixed 700 µM NADP+, pH 7.5, 25.0 °C.
[10] abbreviates: read-out: KM NADP^+, apparent, fixed 6 mM G6P.

A word on the Ki: it is the dissociation constant of the complex between target and ligand, obtained from inhibition or displacement. A low value points to a stronger hold on the target. On to `C[C@]12CC[C@H](O)C[C@@H]1CC[C@@H]1[C@@H]2CC[C@]2(C)C(=O)CC[C@@H]12` [EA, epiandrosterone], for which the Ki is 11 µM on TcG6PDH K83A [1], 8 µM at TcG6PDH K84A [2], 31 µM at TcG6PDH L80G [3] and 3 µM on TcG6PDH R408A [4].

The Km is the substrate concentration at which the rate is half of its maximum. In general, kcat refers to the maximal rate divided by the concentration of active sites. For `NC(=O)c1ccc[n+]([C@@H]2O[C@H](COP(=O)([O-])OP(=O)(O)OC[C@H]3O[C@@H](n4cnc5c(N)ncnc54)[C@H](OP(=O)(O)O)[C@@H]3O)[C@@H](O)[C@H]2O)c1` [NADP^+], the Km on TcG6PDH K83A [5] (setting [10]) is 21 ± 3 µM; at TcG6PDH R408A [6] (setting [10]) it was 17 ± 3 µM; on TcG6PDH K84A [7] (setting [10]), 17 ± 4 µM; at TcG6PDH L80G [8] (setting [10]) it was 75 ± 9 µM. Moreover, the kcat on TcG6PDH K83A [5] (varying NADP+) came to 3.0 ± 0.1 s⁻¹; on TcG6PDH R408A [6] (varying NADP+), 19 ± 1 s⁻¹; on TcG6PDH K84A [7] (varying NADP+), 58 ± 2 s⁻¹; on TcG6PDH L80G [8] (varying NADP+) it was 2.7 ± 0.1 s⁻¹.

The term kcat/Km denotes the turnover number divided by the Michaelis constant. Turning to TcG6PDH K83A (Trypanosoma cruzi; K83A), in data set [9] (other: K83A), the Km was found to be 537 ± 99 µM, the kcat was found to be 2.8 ± 0.2 s⁻¹ and the kcat/Km was 5000 M⁻¹ s⁻¹.

With TcG6PDH K84A (Trypanosoma cruzi; K84A), in data set [9] (other: K84A), the Km was 618 ± 78 µM, the kcat is 24.6 ± 0.9 s⁻¹ and the kcat/Km turned out to be 40000 M⁻¹ s⁻¹.

Consider TcG6PDH L80G (Trypanosoma cruzi; L80G), for which, in data set [9] (other: L80G), the Km was determined as 74 ± 17 µM, the kcat came out at 2.0 ± 0.1 s⁻¹ and the kcat/Km was found to be 27000 M⁻¹ s⁻¹.

Take “TcG6PDH R408A (Trypanosoma cruzi; R408A)”: in data set [9] (other: R408A), the Km was 168 ± 7 µM, the kcat came out at 15.0 ± 0.3 s⁻¹ and the kcat/Km came to 89000 M⁻¹ s⁻¹.
